In the antibiotic and cytotoxicity screens of Wong et al. (2023):
The other results are listed elsewhere or left out.

What was measured:
[1] = system: HSkMC (human skeletal muscle cells); assay: cytotoxicity call (relative viability < 0.9); details: 10 µM
[2] = system: HepG2; assay: cytotoxicity call (relative viability < 0.9); details: 10 µM
[3] = system: S. aureus RN4220; assay: growth inhibition call (relative growth <= 0.2); details: 50 µM

FC(F)(Cl)C(F)(F)Cl
cytotoxicity call [1]: inactive
cytotoxicity call [2]: inactive
growth inhibition call [3]: inactive

C[C@H](CO)N1C[C@H](C)[C@@H](CN(C)Cc2ccc3c(c2)OCO3)OCCCC[C@H](C)Oc2ccc(NC(=O)Cc3ccccc3)cc2C1=O
cytotoxicity call [1]: inactive
cytotoxicity call [2]: inactive
growth inhibition call [3]: inactive

COc1cccc(C#Cc2ccc([C@H]3[C@H]4CN(S(=O)(=O)c5ccccc5C)CC(=O)N4[C@H]3CO)cc2)c1
cytotoxicity call [1]: inactive
cytotoxicity call [2]: inactive
growth inhibition call [3]: inactive

CO[C@@H]1CN(C)C(=O)c2ccc(NS(C)(=O)=O)cc2OC[C@@H](C)N(C(=O)C2CCOCC2)C[C@@H]1C
cytotoxicity call [1]: inactive
cytotoxicity call [2]: inactive
growth inhibition call [3]: inactive

O=C(CN1CCOCC1)NCC[C@@H]1CC[C@@H](NC(=O)Nc2ccccc2)[C@@H](CO)O1
cytotoxicity call [1]: inactive
cytotoxicity call [2]: inactive
growth inhibition call [3]: inactive

CC(=O)OC1CC2C(C)(C)C(=O)C3OC3C2(C)C2CCC3(C)C(c4ccoc4)OC(=O)C4OC43C12C (configuration not stated)
cytotoxicity call [1]: inactive
cytotoxicity call [2]: inactive
growth inhibition call [3]: inactive

CCC(=O)Nc1ccc2c(c1)C(=O)N(C)C[C@@H](OC)[C@@H](C)CN(C(=O)CN1CCOCC1)[C@@H](C)CO2
cytotoxicity call [1]: inactive
cytotoxicity call [2]: inactive
growth inhibition call [3]: inactive

CC(=O)N[C@@H](CCC(=O)O)C(=O)O
cytotoxicity call [1]: inactive
cytotoxicity call [2]: inactive
growth inhibition call [3]: inactive

COc1ccc(-c2cnc3c(c2)C(=O)N([C@@H](C)CO)C[C@@H](C)[C@@H](CN(C)C(=O)Cc2ccccn2)O3)cc1
cytotoxicity call [1]: inactive
cytotoxicity call [2]: inactive
growth inhibition call [3]: inactive

CC(C)NC(=O)Nc1ccc2c(c1)C(=O)N([C@H](C)CO)C[C@H](C)[C@H](CN(C)S(C)(=O)=O)OCCCC[C@H](C)O2
cytotoxicity call [1]: inactive
cytotoxicity call [2]: inactive
growth inhibition call [3]: inactive

C[C@H](CO)N1C[C@H](C)[C@H](CN(C)Cc2ccc(C(=O)Nc3ccccc3N)cc2)Oc2c(NC(=O)Nc3ccc(F)cc3)cccc2C1=O
cytotoxicity call [1]: inactive
cytotoxicity call [2]: inactive
growth inhibition call [3]: inactive

Cc1ccc(S(=O)(=O)Nc2ccc3c(c2)C(=O)N([C@H](C)CO)C[C@@H](C)[C@H](CN(C)Cc2ccc4c(c2)OCO4)OCCCC[C@H](C)O3)cc1
cytotoxicity call [1]: inactive
cytotoxicity call [2]: active
growth inhibition call [3]: inactive

OC[C@@H](O)[C@@H](O)[C@@H](O)CO
cytotoxicity call [1]: inactive
cytotoxicity call [2]: inactive
growth inhibition call [3]: inactive

Cc1ccc(S(=O)(=O)N(C)C[C@H]2Oc3c(NS(=O)(=O)c4ccccc4)cccc3C(=O)N([C@@H](C)CO)C[C@@H]2C)cc1
cytotoxicity call [1]: inactive
cytotoxicity call [2]: inactive
growth inhibition call [3]: inactive

COc1ccc(NC(=O)Nc2ccc3c(c2)C(=O)N([C@H](C)CO)C[C@@H](C)[C@H](CN(C)CC2CCCCC2)O3)cc1
cytotoxicity call [1]: inactive
cytotoxicity call [2]: inactive
growth inhibition call [3]: inactive

NS(=O)(=O)c1ccc(NC(=S)NCCN2CCOCC2)cc1
cytotoxicity call [1]: inactive
cytotoxicity call [2]: inactive
growth inhibition call [3]: inactive

C[C@H](CO)N1C[C@H](C)[C@H](CN(C)C(=O)c2ccc3c(c2)OCO3)Oc2cc(-c3ccncc3)ccc2S1(=O)=O
cytotoxicity call [1]: inactive
cytotoxicity call [2]: inactive
growth inhibition call [3]: inactive

Cc1noc(C)c1NC(=O)Nc1ccc2c(c1)C(=O)N([C@@H](C)CO)C[C@H](C)[C@H](CN(C)C(=O)Nc1ccc(C(F)(F)F)cc1)OCCCC[C@H](C)O2
cytotoxicity call [1]: inactive
cytotoxicity call [2]: inactive
growth inhibition call [3]: inactive

N=C(N=C(N)N)N1N=CC[C@@H]1c1ccccc1
cytotoxicity call [1]: inactive
cytotoxicity call [2]: inactive
growth inhibition call [3]: inactive

C[C@@H]1CN([C@@H](C)CO)C(=O)c2cccc(NC(=O)Nc3ccc(C(F)(F)F)cc3)c2O[C@@H]1CN(C)Cc1ccc(C(=O)Nc2ccccc2N)cc1
cytotoxicity call [1]: inactive
cytotoxicity call [2]: active
growth inhibition call [3]: inactive

COc1ccccc1C#Cc1cnc2c(c1)C(=O)N([C@H](C)CO)C[C@@H](C)[C@H](CN(C)C(=O)CN(C)C)O2
cytotoxicity call [1]: inactive
cytotoxicity call [2]: inactive
growth inhibition call [3]: inactive

COc1ccc2c3c(n(c2c1)C)[C@@H](CO)N(Cc1ccccc1F)C[C@]13CN(C1)C(=O)C1CCOCC1
cytotoxicity call [1]: inactive
cytotoxicity call [2]: inactive
growth inhibition call [3]: inactive

COc1ccccc1-c1cccc(-c2nc(C(=O)Nc3nccs3)cc3c2[C@H](CCO)N(C(=O)CC2CC2)C3)c1
cytotoxicity call [1]: inactive
cytotoxicity call [2]: inactive
growth inhibition call [3]: inactive

CN(C)CCCCNC(=O)[C@H]1C[C@H]2C(=O)N3CCC[C@H]3C(=O)N2[C@H]1c1cccc(OCCO)c1
cytotoxicity call [1]: inactive
cytotoxicity call [2]: inactive
growth inhibition call [3]: inactive

Cc1noc(C)c1NC(=O)N(C)C[C@H]1OCCCC[C@@H](C)Oc2ccc(NS(=O)(=O)c3ccccc3)cc2C(=O)N([C@@H](C)CO)C[C@@H]1C
cytotoxicity call [1]: inactive
cytotoxicity call [2]: inactive
growth inhibition call [3]: inactive

Cc1noc(C)c1S(=O)(=O)Nc1ccc2c(c1)C(=O)N([C@H](C)CO)C[C@@H](C)[C@@H](CN(C)C(=O)Nc1ccc(F)cc1)OCCCC[C@@H](C)O2
cytotoxicity call [1]: inactive
cytotoxicity call [2]: inactive
growth inhibition call [3]: inactive

C[C@H]1CN([C@@H](C)CO)C(=O)Cc2cc(NC(=O)C3CC3)ccc2O[C@H]1CN(C)S(=O)(=O)c1ccccc1
cytotoxicity call [1]: inactive
cytotoxicity call [2]: inactive
growth inhibition call [3]: inactive

C[C@@H]1CN([C@@H](C)CO)S(=O)(=O)c2ccc(C#C[C@@H](C)O)cc2O[C@@H]1CN(C)C(=O)Cc1ccccn1
cytotoxicity call [1]: inactive
cytotoxicity call [2]: inactive
growth inhibition call [3]: inactive

C[C@H]1CCCCO[C@H](CN(C)C(=O)Nc2ccc3c(c2)OCO3)[C@@H](C)CN([C@@H](C)CO)C(=O)c2cc(NC(=O)C3CCCCC3)ccc2O1
cytotoxicity call [1]: inactive
cytotoxicity call [2]: inactive
growth inhibition call [3]: inactive

Cc1ccc(S(=O)(=O)Nc2cccc3c2O[C@@H](CN(C)C(=O)Nc2cccc4ccccc24)[C@@H](C)CN([C@H](C)CO)C3=O)cc1
cytotoxicity call [1]: inactive
cytotoxicity call [2]: inactive
growth inhibition call [3]: inactive

Nc1nonc1C(=O)OCC(=O)N1CCOCC1
cytotoxicity call [1]: inactive
cytotoxicity call [2]: inactive
growth inhibition call [3]: inactive

Cc1ncc(COP(=O)(O)O)c(C=O)c1O
cytotoxicity call [1]: inactive
cytotoxicity call [2]: inactive
growth inhibition call [3]: inactive

C[C@@H]1CCCCO[C@@H](CN(C)Cc2ccccc2)[C@@H](C)CN([C@@H](C)CO)C(=O)c2cc(NS(=O)(=O)c3ccccc3)ccc2O1
cytotoxicity call [1]: inactive
cytotoxicity call [2]: active
growth inhibition call [3]: inactive

CCN1CCN(C(=O)N[C@@H](C(=O)N[C@@H]2C(=O)N3[C@@H]2SC(C)(C)[C@@H]3C(=O)O)c2ccccc2)C(=O)C1=O
cytotoxicity call [1]: inactive
cytotoxicity call [2]: inactive
growth inhibition call [3]: active

C[C@H](CO)N1C[C@H](C)[C@H](CN(C)CC2CC2)OCCCC[C@H](C)Oc2ccc(NC(=O)C3CCCCC3)cc2C1=O
cytotoxicity call [1]: inactive
cytotoxicity call [2]: inactive
growth inhibition call [3]: inactive

O=C(OC[C@]12O[C@H]1[C@@H](O)[C@@H]1C=CO[C@@H](O[C@@H]3O[C@H](CO)[C@@H](O)[C@H](O)[C@H]3O)[C@@H]12)c1ccccc1
cytotoxicity call [1]: inactive
cytotoxicity call [2]: inactive
growth inhibition call [3]: inactive

CCS(=O)(=O)N[C@H]1C=C[C@@H](CC(=O)NCc2ccc(Cl)cc2)O[C@@H]1CO
cytotoxicity call [1]: inactive
cytotoxicity call [2]: inactive
growth inhibition call [3]: inactive

C[C@@H]1CCCCO[C@@H](CN(C)C(=O)Nc2ccc3c(c2)OCO3)[C@@H](C)CN([C@@H](C)CO)C(=O)c2cc(NC(=O)c3ccccc3)ccc2O1
cytotoxicity call [1]: inactive
cytotoxicity call [2]: inactive
growth inhibition call [3]: inactive

C[C@H]1CN([C@@H](C)CO)C(=O)c2c(c3ccccc3n2C)-c2ccccc2CO[C@H]1CN(C)Cc1ccccc1C(F)(F)F
cytotoxicity call [1]: inactive
cytotoxicity call [2]: inactive
growth inhibition call [3]: inactive

COc1ccc(S(=O)(=O)N(C)C[C@@H]2Oc3ccc(NS(=O)(=O)c4cccs4)cc3C(=O)N([C@@H](C)CO)C[C@@H]2C)cc1
cytotoxicity call [1]: inactive
cytotoxicity call [2]: active
growth inhibition call [3]: inactive

C[C@H](CO)N1C[C@H](C)[C@@H](CN(C)Cc2ccc(Oc3ccccc3)cc2)Oc2c(NC(=O)C3CCOCC3)cccc2C1=O
cytotoxicity call [1]: inactive
cytotoxicity call [2]: inactive
growth inhibition call [3]: inactive

COc1ccc(C#Cc2ccc3c(c2)[C@]2(C(=O)N3)[C@H](C(=O)N3CCN(c4ncccn4)CC3)[C@H]3C(=O)O[C@H](c4ccccc4)[C@H](c4ccccc4)N3[C@@H]2c2ccc(O)cc2)cc1
cytotoxicity call [1]: inactive
cytotoxicity call [2]: inactive
growth inhibition call [3]: inactive

C[C@@H]1CN([C@H](C)CO)S(=O)(=O)c2ccc(Br)cc2O[C@H]1CN(C)C(=O)c1ccc2c(c1)OCO2
cytotoxicity call [1]: inactive
cytotoxicity call [2]: inactive
growth inhibition call [3]: inactive

OC[C@@H]1CC[C@@H]2O[C@H](CCc3ccc(C#CCc4ccccc4)cc3)[C@H](n3cc(-c4ccccc4)nn3)C[C@@H]2O1
cytotoxicity call [1]: inactive
cytotoxicity call [2]: inactive
growth inhibition call [3]: inactive

CO[C@@H]1CN(C)C(=O)c2cc(NS(=O)(=O)c3cn(C)cn3)ccc2OC[C@H](C)N(Cc2cccc(F)c2)C[C@H]1C
cytotoxicity call [1]: inactive
cytotoxicity call [2]: inactive
growth inhibition call [3]: inactive

Cc1sc(/N=C/c2ccc(Cl)c(Cl)c2)c(C#N)c1C
cytotoxicity call [1]: inactive
cytotoxicity call [2]: inactive
growth inhibition call [3]: inactive

COc1ccc(NC(=O)N(C)C[C@@H]2OCCCC[C@H](C)Oc3ccc(NC(=O)CCC(F)(F)F)cc3C(=O)N([C@H](C)CO)C[C@H]2C)cc1
cytotoxicity call [1]: inactive
cytotoxicity call [2]: inactive
growth inhibition call [3]: inactive

CC(C)CCC[C@@H](C)[C@H]1CC[C@@]2(C)C3=C(CC[C@]12C)[C@@]1(C)CC[C@H](OC(=O)CCl)C(C)(C)[C@@H]1CC3
cytotoxicity call [1]: inactive
cytotoxicity call [2]: inactive
growth inhibition call [3]: inactive

COc1ccc(NC(=O)N(C)C[C@@H]2Oc3ncc(Br)cc3C(=O)N([C@H](C)CO)C[C@@H]2C)cc1
cytotoxicity call [1]: inactive
cytotoxicity call [2]: inactive
growth inhibition call [3]: inactive

O=C(C[C@H]1CC[C@H]2[C@@H](COC[C@@H](O)CN2S(=O)(=O)c2ccccc2)O1)NCc1ccc(-c2ccccc2)cc1
cytotoxicity call [1]: inactive
cytotoxicity call [2]: inactive
growth inhibition call [3]: inactive

C[C@@H]1CN([C@H](C)CO)S(=O)(=O)c2ccc(-c3cccnc3)cc2O[C@@H]1CN(C)C(=O)NC1CCCCC1
cytotoxicity call [1]: inactive
cytotoxicity call [2]: inactive
growth inhibition call [3]: inactive

C[C@@H]1CCCCO[C@H](CN(C)C(=O)Nc2ccc(C(F)(F)F)cc2)[C@H](C)CN([C@H](C)CO)C(=O)c2cc(NC(=O)c3ccccc3)ccc2O1
cytotoxicity call [1]: inactive
cytotoxicity call [2]: inactive
growth inhibition call [3]: inactive

NCCC[C@@H](N)CC(=O)NC[C@H]1NC(=O)[C@@H](CO)NC(=O)[C@@H](N)CNC(=O)[C@H]([C@H]2CCN=C(N)N2)NC(=O)C(C=NC(N)=O)NC1=O (some centres not stated)
cytotoxicity call [1]: inactive
cytotoxicity call [2]: inactive
growth inhibition call [3]: inactive

C[C@@H]1CN([C@@H](C)CO)C(=O)CCCn2cc(nn2)CO[C@H]1CN(C)S(=O)(=O)c1ccc2c(c1)OCCCO2
cytotoxicity call [1]: inactive
cytotoxicity call [2]: inactive
growth inhibition call [3]: inactive
